{"source": "a collection of fitness landscapes (doi:10.1126/science.1257360)", "parents": {"B1": {"name": "PhoQ; a variant is named by its letters at X, in order, P23837 (parent)", "chain": "MKKLLRLFFPLSLRVRFLLATAAVVLVLSLAYGMVALIGYSVSFDKTTFRLLRGESNLFYTLAKWENNKLHVELPENIDKQSPTMTLIYDENGQLLWAQRDVPWLMKMIQPDWLKSNGFHEIEADVNDTSLLLSGDHSIQQQLQEVREDDDDAEMTHSVAVNVYPATSRMPKLTIVVVDTIPVELKSSYMVWSWFIYVLSANLLLVIPLLWVAAWWSLRPIEALAKEVRELEEHNRELLNPATTRELTSLVRNLNRLLKSERERYDKYRTTLTDLTHSLKTPLXXLQXXLRSLRSEKMSVSDAEPVMLEQISRISQQIGYYLHRASMRGGTLLSRELHPVAPLLDNLTSALNKVYQRKGVNISLDISPEISFVGEQNDFVEVMGNVLDNACKYCLEFVEISARQTDEHLYIVVEDDGPGIPLSKREVIFDRGQRVDTLRPGQGVGLAVAREITEQYEGKIVAGESMLGGARMEVIFGRQHSAPKDE"}}, "note": "Some of the results follow.", "data": [{"variants_of": "B1", "experiment": "enrichment ratio after two sorts for PhoP signalling (ratio (wild type AVST 3.29)); higher = more functional", "details": "with PhoP (E. coli)", "values": [{"variant": "EYSD", "enrichment ratio": "≤ 0.25"}, {"variant": "IAMK", "enrichment ratio": "≤ 0.25"}, {"variant": "GRFG", "enrichment ratio": "≤ 0.25"}, {"variant": "HWMH", "enrichment ratio": "≤ 0.25"}, {"variant": "MWDS", "enrichment ratio": "≤ 0.25"}, {"variant": "WAAF", "enrichment ratio": "≤ 0.25"}, {"variant": "IKMC", "enrichment ratio": "≤ 0.25"}, {"variant": "AWGC", "enrichment ratio": "≤ 0.25"}, {"variant": "ACYI", "enrichment ratio": 0.618}, {"variant": "SKRR", "enrichment ratio": "≤ 0.25"}, {"variant": "ELKS", "enrichment ratio": "≤ 0.25"}, {"variant": "PNLI", "enrichment ratio": "≤ 0.25"}, {"variant": "RWAY", "enrichment ratio": "≤ 0.25"}, {"variant": "GMNL", "enrichment ratio": "≤ 0.25"}, {"variant": "KCPR", "enrichment ratio": "≤ 0.25"}, {"variant": "HLKY", "enrichment ratio": "≤ 0.25"}, {"variant": "PSDA", "enrichment ratio": "≤ 0.25"}, {"variant": "DIWL", "enrichment ratio": "≤ 0.25"}, {"variant": "GQKI", "enrichment ratio": "≤ 0.25"}, {"variant": "DGCS", "enrichment ratio": "≤ 0.25"}, {"variant": "RLGR", "enrichment ratio": "≤ 0.25"}, {"variant": "KMWI", "enrichment ratio": "≤ 0.25"}, {"variant": "FWFY", "enrichment ratio": "≤ 0.25"}, {"variant": "VAVP", "enrichment ratio": "≤ 0.25"}, {"variant": "WPQD", "enrichment ratio": "≤ 0.25"}, {"variant": "INEQ", "enrichment ratio": "≤ 0.25"}, {"variant": "YMGM", "enrichment ratio": "≤ 0.25"}, {"variant": "TYNW", "enrichment ratio": "≤ 0.25"}, {"variant": "GRGF", "enrichment ratio": "≤ 0.25"}, {"variant": "VPLF", "enrichment ratio": "≤ 0.25"}, {"variant": "TTEQ", "enrichment ratio": "≤ 0.25"}, {"variant": "FDRG", "enrichment ratio": "≤ 0.25"}, {"variant": "DHHG", "enrichment ratio": "≤ 0.25"}, {"variant": "NDYR", "enrichment ratio": "≤ 0.25"}, {"variant": "LPAD", "enrichment ratio": "≤ 0.25"}, {"variant": "YAHH", "enrichment ratio": "≤ 0.25"}, {"variant": "MAPI", "enrichment ratio": "≤ 0.25"}, {"variant": "HGSQ", "enrichment ratio": "≤ 0.25"}, {"variant": "YQIH", "enrichment ratio": "≤ 0.25"}, {"variant": "MVGH", "enrichment ratio": "≤ 0.25"}, {"variant": "HQCN", "enrichment ratio": "≤ 0.25"}, {"variant": "VDLQ", "enrichment ratio": "≤ 0.25"}, {"variant": "RLTC", "enrichment ratio": "≤ 0.25"}, {"variant": "HSHF", "enrichment ratio": "≤ 0.25"}, {"variant": "VDVT", "enrichment ratio": "≤ 0.25"}, {"variant": "HADY", "enrichment ratio": "≤ 0.25"}, {"variant": "HGQS", "enrichment ratio": "≤ 0.25"}, {"variant": "QPHL", "enrichment ratio": "≤ 0.25"}, {"variant": "AVPI", "enrichment ratio": 2.35}, {"variant": "DIVH", "enrichment ratio": "≤ 0.25"}, {"variant": "EMRC", "enrichment ratio": "≤ 0.25"}, {"variant": "DKHF", "enrichment ratio": "≤ 0.25"}, {"variant": "GRWK", "enrichment ratio": "≤ 0.25"}, {"variant": "VSCF", "enrichment ratio": 1.14}, {"variant": "SKHT", "enrichment ratio": "≤ 0.25"}, {"variant": "IEAP", "enrichment ratio": "≤ 0.25"}, {"variant": "LTTD", "enrichment ratio": "≤ 0.25"}, {"variant": "HSTI", "enrichment ratio": 4.66}, {"variant": "LVTK", "enrichment ratio": "≤ 0.25"}, {"variant": "WTSR", "enrichment ratio": "≤ 0.25"}, {"variant": "DQNN", "enrichment ratio": "≤ 0.25"}, {"variant": "SNNW", "enrichment ratio": 1.31}, {"variant": "TEVV", "enrichment ratio": 12.9}, {"variant": "YDKT", "enrichment ratio": "≤ 0.25"}, {"variant": "KGWK", "enrichment ratio": "≤ 0.25"}, {"variant": "FFVW", "enrichment ratio": "≤ 0.25"}, {"variant": "EWFG", "enrichment ratio": "≤ 0.25"}, {"variant": "PHPA", "enrichment ratio": "≤ 0.25"}, {"variant": "WFGM", "enrichment ratio": "≤ 0.25"}, {"variant": "KVHK", "enrichment ratio": "≤ 0.25"}, {"variant": "LIRI", "enrichment ratio": "≤ 0.25"}, {"variant": "TAMS", "enrichment ratio": 7.61}, {"variant": "PTVA", "enrichment ratio": "≤ 0.25"}, {"variant": "FYPG", "enrichment ratio": "≤ 0.25"}, {"variant": "LGWI", "enrichment ratio": 2.54}, {"variant": "KCQC", "enrichment ratio": "≤ 0.25"}, {"variant": "ARIY", "enrichment ratio": "≤ 0.25"}, {"variant": "VKKH", "enrichment ratio": "≤ 0.25"}, {"variant": "KTGV", "enrichment ratio": "≤ 0.25"}, {"variant": "QPMF", "enrichment ratio": "≤ 0.25"}, {"variant": "NCFT", "enrichment ratio": "≤ 0.25"}, {"variant": "RPVD", "enrichment ratio": "≤ 0.25"}, {"variant": "MSWT", "enrichment ratio": 10.2}, {"variant": "EGFT", "enrichment ratio": "≤ 0.25"}, {"variant": "IGQA", "enrichment ratio": "≤ 0.25"}, {"variant": "HTMT", "enrichment ratio": "≤ 0.25"}, {"variant": "STFG", "enrichment ratio": "≤ 0.25"}, {"variant": "HEPN", "enrichment ratio": 18.8}, {"variant": "DTVV", "enrichment ratio": "≤ 0.25"}, {"variant": "YIWP", "enrichment ratio": "≤ 0.25"}, {"variant": "YQAM", "enrichment ratio": "≤ 0.25"}, {"variant": "WPMH", "enrichment ratio": "≤ 0.25"}, {"variant": "GICV", "enrichment ratio": 8.05}, {"variant": "IGHF", "enrichment ratio": "≤ 0.25"}, {"variant": "LLTV", "enrichment ratio": "≤ 0.25"}, {"variant": "QHAH", "enrichment ratio": "≤ 0.25"}, {"variant": "NADC", "enrichment ratio": "≤ 0.25"}, {"variant": "KNYS", "enrichment ratio": "≤ 0.25"}, {"variant": "EDNR", "enrichment ratio": "≤ 0.25"}, {"variant": "QNGL", "enrichment ratio": 1.23}, {"variant": "QPIC", "enrichment ratio": "≤ 0.25"}, {"variant": "AYNF", "enrichment ratio": "≤ 0.25"}, {"variant": "PNVM", "enrichment ratio": "≤ 0.25"}, {"variant": "MTNT", "enrichment ratio": "≤ 0.25"}, {"variant": "IKKT", "enrichment ratio": "≤ 0.25"}, {"variant": "RGCT", "enrichment ratio": "≤ 0.25"}, {"variant": "MIHK", "enrichment ratio": "≤ 0.25"}, {"variant": "YRLM", "enrichment ratio": "≤ 0.25"}, {"variant": "HGYM", "enrichment ratio": "≤ 0.25"}, {"variant": "TCKQ", "enrichment ratio": "≤ 0.25"}, {"variant": "AIGI", "enrichment ratio": 11.8}, {"variant": "LMLA", "enrichment ratio": "≤ 0.25"}, {"variant": "NWVG", "enrichment ratio": "≤ 0.25"}, {"variant": "PMRG", "enrichment ratio": "≤ 0.25"}, {"variant": "QTME", "enrichment ratio": "≤ 0.25"}, {"variant": "DCRT", "enrichment ratio": "≤ 0.25"}, {"variant": "ENFF", "enrichment ratio": "≤ 0.25"}, {"variant": "NEMV", "enrichment ratio": 14.8}, {"variant": "CFFT", "enrichment ratio": "≤ 0.25"}, {"variant": "NLYQ", "enrichment ratio": "≤ 0.25"}, {"variant": "EEDY", "enrichment ratio": "≤ 0.25"}, {"variant": "SPLF", "enrichment ratio": "≤ 0.25"}, {"variant": "PNLS", "enrichment ratio": "≤ 0.25"}, {"variant": "PARA", "enrichment ratio": "≤ 0.25"}, {"variant": "VLVA", "enrichment ratio": "≤ 0.25"}, {"variant": "SKMF", "enrichment ratio": 2.03}, {"variant": "YGSN", "enrichment ratio": "≤ 0.25"}, {"variant": "NCAA", "enrichment ratio": "≤ 0.25"}, {"variant": "DLVR", "enrichment ratio": "≤ 0.25"}, {"variant": "PRGK", "enrichment ratio": "≤ 0.25"}, {"variant": "QRPF", "enrichment ratio": "≤ 0.25"}, {"variant": "VVNI", "enrichment ratio": "≤ 0.25"}, {"variant": "PCCD", "enrichment ratio": "≤ 0.25"}, {"variant": "QMPI", "enrichment ratio": "≤ 0.25"}, {"variant": "VHTE", "enrichment ratio": "≤ 0.25"}, {"variant": "KMTN", "enrichment ratio": "≤ 0.25"}, {"variant": "PFPG", "enrichment ratio": "≤ 0.25"}, {"variant": "IHFM", "enrichment ratio": "≤ 0.25"}, {"variant": "ICRC", "enrichment ratio": "≤ 0.25"}, {"variant": "NFQI", "enrichment ratio": "≤ 0.25"}, {"variant": "PFWM", "enrichment ratio": "≤ 0.25"}, {"variant": "LEFS", "enrichment ratio": 8.31}, {"variant": "KFKA", "enrichment ratio": "≤ 0.25"}, {"variant": "NATW", "enrichment ratio": "≤ 0.25"}, {"variant": "CVTI", "enrichment ratio": "≤ 0.25"}, {"variant": "NGHP", "enrichment ratio": "≤ 0.25"}, {"variant": "RTHS", "enrichment ratio": "≤ 0.25"}, {"variant": "WLKG", "enrichment ratio": "≤ 0.25"}, {"variant": "TQCS", "enrichment ratio": 15.1}, {"variant": "ADQQ", "enrichment ratio": "≤ 0.25"}, {"variant": "THST", "enrichment ratio": 7.93}, {"variant": "DGST", "enrichment ratio": "≤ 0.25"}, {"variant": "CSSP", "enrichment ratio": "≤ 0.25"}]}]}
